Results reported in paper PMC11995724, “Antibiotic target discovery by integrated phenotypic and activity-based profiling of electrophilic fragments” (Cell chemical biology, 2025).
In all, about 3,200 compounds went through this assay and about 75 (2%) showed an effect of 50% or more. Some of the results follow.

system: T1, S. aureus MSSA476; design: species or system S. aureus MSSA476 (TSB) or V. cholerae SAD30 (LB); 384-well bacterial growth screen at 25 uM, OD600 relative to DMSO control; conditions: relative growth, OD600, TSB; 25 µM; inhibitor
T1 construct: MSSA476

| SMILES | % of control remaining |
| --- | --- |
| CN(C(=O)CCl)C1CCN(c2ccccc2F)C1=O (stereo not drawn) [5-A18, 2-chloro-N-[1-(2-fluorophenyl)-2-oxopyrrolidin-3-yl]-N-methylacetamide] | 99.8179% |
| N#CC(=CC=Cc1ccccc1[N+](=O)[O-])C(=O)Nc1ccccc1 [8-P20, 2-cyano-5-(2-nitrophenyl)-N-phenylpenta-2,4-dienamide] | 137.427% |
| C=CC(=O)NCC(C)(C)C1(O)CCOC1 (stereo not drawn) [3-K13, N-[2-(3-hydroxyoxolan-3-yl)-2-methylpropyl]prop-2-enamide] | 125.033% |
| O=C(CCl)Nc1nnc(SCc2ccccc2)s1 [4-F15, N-[5-(benzylsulfanyl)-1,3,4-thiadiazol-2-yl]-2-chloroacetamide] | 125.012% |
| COCCNC(=O)C(C#N)=Cc1sccc1C [9-M17, 2-cyano-N-(2-methoxyethyl)-3-(3-methylthiophen-2-yl)prop-2-enamide] | 102.172% |
| CC(Cl)C(=O)Nc1ncc(C(F)(F)F)cc1Cl (stereo not drawn) [5-L22, 2-chloro-N-[3-chloro-5-(trifluoromethyl)pyridin-2-yl]propanamide] | 118.033% |
| CC(C)NS(=O)(=O)c1ccc(NC(=O)C(C)Cl)cc1 (stereo not drawn) [6-B10, 2-chloro-N-{4-[(propan-2-yl)sulfamoyl]phenyl}propanamide] | 103.122% |
| Cn1cc(C=C(C#N)C(=O)Nc2ccccc2F)c(-c2ccncc2)n1 [9-L15, 2-cyano-N-(2-fluorophenyl)-3-[1-methyl-3-(pyridin-4-yl)-1H-pyrazol-4-yl]prop-2-enamide] | 78.2022% |
| Cc1cccc(CC(=O)CCl)c1 [10-I19, 1-chloro-3-(3-methylphenyl)propan-2-one] | 130.938% |
| N#C/C(C(=O)Nc1ccc(C(F)(F)F)cc1)=C(/O)C1CC1 [9-N22, (2Z)-2-cyano-3-cyclopropyl-3-hydroxy-N-[4-(trifluoromethyl)phenyl]prop-2-enamide] | 65.618% |
| C=CC(=O)NCCS(=O)(=O)N1CCOCC1 [2-E14, N-[2-(morpholine-4-sulfonyl)ethyl]prop-2-enamide] | 124.282% |
| CCOc1ccc(C=C(C#N)C(=O)Nc2cccc3ncccc23)cc1 [8-A07, 2-cyano-3-(4-ethoxyphenyl)-N-(quinolin-5-yl)prop-2-enamide] | 131.452% |
| C=CC(=O)N1CCn2cccc2C1c1ccncc1 (stereo not drawn) [3-M03, 1-[1-(pyridin-4-yl)-1H,2H,3H,4H-pyrrolo[1,2-a]pyrazin-2-yl]prop-2-en-1-one] | 98.2151% |
| C=CCNC(=O)C(C#N)=Cc1ccc(-c2ccc(F)cc2)s1 [9-C12, 2-cyano-3-[5-(4-fluorophenyl)thiophen-2-yl]-N-(prop-2-en-1-yl)prop-2-enamide] | 113.858% |
| C=CC(=O)NC1CCS(=O)(=O)C(C)C1 (stereo not drawn) [3-A10, N-(2-methyl-1,1-dioxo-1lambda6-thian-4-yl)prop-2-enamide] | 114.933% |
| CCCCNC(=O)C(C#N)=Cc1cccs1 [9-E17, N-butyl-2-cyano-3-(thiophen-2-yl)prop-2-enamide] | 100.075% |
| CC(Cl)C(=O)N[C@H]1CCC(=O)N[C@@H]1c1ccnn1C (mixture of isomers) [6-B14, rac-2-chloro-N-[(2R,3R)-2-(1-methyl-1H-pyrazol-5-yl)-6-oxopiperidin-3-yl]propanamide] | 102.78% |
| C=CC(=O)N1CCC(C(=O)N2CCC(NC(=O)NC)CC2)CC1 [2-H18, 3-methyl-1-{1-[1-(prop-2-enoyl)piperidine-4-carbonyl]piperidin-4-yl}urea] | 121.149% |
| C=CC(=O)N(CC1CCOCC1)C1CC1 [2-I08, N-cyclopropyl-N-[(oxan-4-yl)methyl]prop-2-enamide] | 111.401% |
| C=CC(=O)NCC1CCN(C)C1=O (stereo not drawn) [2-B05, N-[(1-methyl-2-oxopyrrolidin-3-yl)methyl]prop-2-enamide] | 107.92% |
| O=C(CCl)Nc1c(Cl)cccc1C(F)(F)F [5-B04, 2-chloro-N-[2-chloro-6-(trifluoromethyl)phenyl]acetamide] | 82.3315% |
| CC(Cl)C(=O)NC1CCN(c2nnnn2C)CC1 (stereo not drawn) [7-K08, 2-chloro-N-[1-(1-methyl-1H-1,2,3,4-tetrazol-5-yl)piperidin-4-yl]propanamide] | 93.5636% |
| CCCn1c(N)c(C(=O)CCl)c(=O)n(C)c1=O [10-H12, 6-amino-5-(2-chloroacetyl)-3-methyl-1-propyl-1,2,3,4-tetrahydropyrimidine-2,4-dione] | 92.8125% |

| SMILES | % of control remaining |
| --- | --- |
| Cc1ccc(C)c(NC(=O)C(C#N)=Cc2ccc(N3CCCCC3)o2)c1 [9-D12, 2-cyano-N-(2,5-dimethylphenyl)-3-[5-(piperidin-1-yl)furan-2-yl]prop-2-enamide] | 93.1835% |
| CC(C)Oc1ccc2[nH]cc(C(=O)CCl)c2c1 [10-E03, 2-chloro-1-[5-(propan-2-yloxy)-1H-indol-3-yl]ethan-1-one] | 110.313% |
| C=CC(=O)N1CCC(C2CCOC2)C1 (stereo not drawn) [1-H06, 1-[3-(oxolan-3-yl)pyrrolidin-1-yl]prop-2-en-1-one] | 99.1648% |
| CCCCNC(=O)C(C#N)=Cc1cccc(Cl)c1Cl [9-H11, N-butyl-2-cyano-3-(2,3-dichlorophenyl)prop-2-enamide] | 71.0112% |
| Cc1ccc(NC(=O)NC(=O)C(C)Cl)c(C)c1 (stereo not drawn) [6-J04, 3-(2-chloropropanoyl)-1-(2,4-dimethylphenyl)urea] | 101.073% |
| C=CC(=O)NCc1ccc(F)c(F)c1 [1-C10, N-[(3,4-difluorophenyl)methyl]prop-2-enamide] | 86.5055% |
| C=CC(=O)N(C)CC(=O)N1CCN(C(=O)c2cccc(O)c2)CC1 [2-J22, N-{2-[4-(3-hydroxybenzoyl)piperazin-1-yl]-2-oxoethyl}-N-methylprop-2-enamide] | 131.941% |
| C=CC(=O)NC1CCCCC12CCCC2 (stereo not drawn) [1-F16, N-{spiro[4.5]decan-6-yl}prop-2-enamide] | 107.604% |
| COc1cccc(CN(C(=O)CCl)C23CC4CC(CC(C4)C2)C3)c1 [5-E05, N-(adamantan-1-yl)-2-chloro-N-[(3-methoxyphenyl)methyl]acetamide] | 131.148% |
| C=CC(=O)N(Cc1c2c(nn1C)CCOC2)c1cc(C)cc(C)c1 [2-A07, N-(3,5-dimethylphenyl)-N-({2-methyl-2H,4H,6H,7H-pyrano[4,3-c]pyrazol-3-yl}methyl)prop-2-enamide] | 126.719% |
| CC(Cl)C(=O)N(CCc1ccc(F)cc1F)C(C)C (stereo not drawn) [6-D18, 2-chloro-N-[2-(2,4-difluorophenyl)ethyl]-N-(propan-2-yl)propanamide] | 93.9024% |
| Cc1cc(C2CCCN2C(=O)C(C)Cl)no1 (stereo not drawn) [7-D19, 2-chloro-1-[2-(5-methyl-1,2-oxazol-3-yl)pyrrolidin-1-yl]propan-1-one] | 100.785% |
| CC(Cl)C(=O)N1CC(S(=O)(=O)c2ccccc2F)C1 (stereo not drawn) [7-M15, 2-chloro-1-[3-(2-fluorobenzenesulfonyl)azetidin-1-yl]propan-1-one] | 99.843% |
| CC(Cl)C(=O)N1CCCN(C)c2cc(F)ccc21 (stereo not drawn) [6-N16, 2-chloro-1-(7-fluoro-5-methyl-2,3,4,5-tetrahydro-1H-1,5-benzodiazepin-1-yl)propan-1-one] | 103.122% |
| Cc1c(CN(CC2CC=CCC2)C(=O)CCl)cnn1C (stereo not drawn) [5-C14, 2-chloro-N-[(cyclohex-3-en-1-yl)methyl]-N-[(1,5-dimethyl-1H-pyrazol-4-yl)methyl]acetamide] | 89.6175% |
| C=CC(=O)N(C)CC(=O)NCc1c(O)nnc(C)c1C [2-I20, N-({[(3-hydroxy-5,6-dimethylpyridazin-4-yl)methyl]carbamoyl}methyl)-N-methylprop-2-enamide] | 69.9739% |
| C=CC(=O)N1CCC(C(=O)NCc2ncccc2OC)CC1 [3-H05, N-[(3-methoxypyridin-2-yl)methyl]-1-(prop-2-enoyl)piperidine-4-carboxamide] | 93.6874% |
| O=C(O)C1CCN(C(=O)CCl)CC1 [6-O11, 1-(2-chloroacetyl)piperidine-4-carboxylic acid] | 88.0976% |
| C=CC(=O)Nc1ccc2c(c1)OCCCO2 [1-G20, N-(3,4-dihydro-2H-1,5-benzodioxepin-7-yl)prop-2-enamide] | 96% |
| COc1cc(NC(=O)CCl)c(Cl)cc1C(=O)O [4-M17, 5-chloro-4-(2-chloroacetamido)-2-methoxybenzoic acid] | 121.201% |
| C=CC(=O)N(Cc1cn(C2CCC2)nn1)c1ccc(F)cc1 [1-G09, N-[(1-cyclobutyl-1H-1,2,3-triazol-4-yl)methyl]-N-(4-fluorophenyl)prop-2-enamide] | 106.198% |
| CCCn1c(C)cc(C=C(C#N)C(=O)N2CCCCC2)c1C [9-D11, 3-(2,5-dimethyl-1-propyl-1H-pyrrol-3-yl)-2-(piperidine-1-carbonyl)prop-2-enenitrile] | 95.8801% |
